Data taken from the antibiotic and cytotoxicity screens of Wong et al. (2023).
Some of the results follow.

What follows are molecules tested on HepG2 (assay: cytotoxicity call (relative viability < 0.9)). Conditions: 10 µM.

Compound	cytotoxicity call
COCc1cn(CC[C@H]2CC[C@H](NC(=O)CCN3CCCCC3)[C@H](CO)O2)nn1	inactive
COc1ccc(CN(C)C[C@H]2Oc3ccc(NS(=O)(=O)c4cn(C)cn4)cc3CC(=O)N([C@@H](C)CO)C[C@H]2C)cc1	inactive
C[C@H](CO)N1C[C@H](C)[C@@H](CN(C)C(=O)Nc2cccc3ccccc23)Oc2ccc(NC(=O)Nc3ccc(C(F)(F)F)cc3)cc2CC1=O	inactive
Cc1noc(C)c1NC(=O)Nc1ccc2c(c1)C(=O)N([C@H](C)CO)C[C@H](C)[C@@H](CN(C)C(=O)C1CCCCC1)OCCCC[C@@H](C)O2	inactive
CN(C)c1ccc(O)c2c1C[C@@H]1C[C@@H]3[C@@H](N(C)C)C(=O)C(C(N)=O)=C(O)[C@]3(O)C(=O)[C@H]1C2=O	inactive
COc1cc(NC(=O)c2cccs2)c(C(=O)OCC(=O)c2cc(C)n(-c3ccccc3)c2C)cc1OC	inactive
Cc1ccc(S(=O)(=O)N[C@H](C)C(=O)O)cc1	inactive
CCCN1CCC2(CC1)NC(=O)N(CC(=O)N1CCN(C(=O)OCC)CC1)C2=O	inactive
C[C@H]1CN([C@@H](C)CO)S(=O)(=O)c2ccc(C#CC(C)(C)O)cc2O[C@@H]1CN(C)Cc1ccccc1	inactive
O=C(O[C@@H]1O[C@@H]2COC(=O)c3cc(Oc4c(C(=O)O)cc(O)c(O)c4O)c(O)c(O)c3-c3c(cc(O)c(O)c3O)C(=O)O[C@H]2[C@H](OC(=O)c2cc(O)c(O)c(O)c2)[C@H]1OC(=O)c1cc(O)c(O)c(O)c1)c1cc(O)c(O)c(O)c1	inactive
C[C@H]1CN([C@@H](C)CO)C(=O)c2cc(NC(=O)Cn3cnnn3)ccc2O[C@H]1CN(C)Cc1ccc(C(F)(F)F)cc1	inactive
C=CC[C@H](CC(=O)NCCO)C(=O)NC[C@@H](OC(=O)[C@H](CC=C)CC(=O)OC(C)(C)C)c1ccccc1	inactive
CCO[C@@H]1OC(C(=O)N2CCN(Cc3ccc4c(c3)OCO4)CC2)=C[C@H](c2ccc(C(F)(F)F)cc2)[C@H]1CCCOC(=O)NCCCCCC(=O)NO	inactive
COc1ccc(C2=CCCC2)cc1	inactive
C[C@@H]1CCCCO[C@@H](CN(C)CC2CCCCC2)[C@H](C)CN([C@@H](C)CO)C(=O)c2cc(NC(=O)CCCCCC(=O)Nc3ccccc3N)ccc2O1	inactive
O=c1ccoc2cc(O)c([C@H]3O[C@H](CO)[C@@H](O)[C@H](O)[C@@H]3O)c(O)c12	inactive

Compound	cytotoxicity call
Cc1ccc(S(=O)(=O)Nc2ccc3c(c2)C(=O)N([C@H](C)CO)C[C@H](C)[C@H](CN(C)S(=O)(=O)c2c(C)noc2C)O3)cc1	inactive
COCC(=O)N[C@@H]1C=C[C@H](CC(=O)N2CCCCC2)O[C@@H]1CO	inactive
C[C@H](CO)N1C[C@H](C)[C@H](CN(C)C(=O)CN2CCOCC2)Oc2cc(/C=C/c3ccccc3)ccc2S1(=O)=O	inactive
CC(C)NC(=O)Nc1ccc2c(c1)CC(=O)N([C@@H](C)CO)C[C@@H](C)[C@@H](CN(C)Cc1ccc3c(c1)OCO3)O2	inactive
COc1ccc(S(=O)(=O)Nc2cccc3c2O[C@@H](CN(C)C(=O)Nc2c(C)noc2C)[C@@H](C)CN([C@H](C)CO)C3=O)cc1	inactive
COc1ccc(CN(C)C[C@@H]2OCCCC[C@H](C)Oc3ccc(NC(=O)c4ccncc4)cc3C(=O)N([C@@H](C)CO)C[C@H]2C)cc1	inactive
Nc1nc(=S)c2ncn([C@@H]3O[C@H](CO)[C@@H](O)[C@H]3O)c2[nH]1	active
C[C@@H]1CN([C@H](C)CO)C(=O)c2ccccc2-c2ccccc2CO[C@@H]1CN(C)Cc1ccc(C(F)(F)F)cc1	inactive
C[C@@H]1CN([C@@H](C)CO)C(=O)c2cc(NS(=O)(=O)c3ccc(Cl)cc3)ccc2O[C@@H](C)CCCCO[C@@H]1CN(C)C(=O)Nc1ccccc1	inactive
C[C@H]1CN([C@@H](C)CO)C(=O)Cc2cc(NS(C)(=O)=O)ccc2O[C@H]1CN(C)C	inactive
COC(=O)c1cccc(NC(=N)N=C(N)N)c1	inactive
c1cnc(-c2cn[nH]c2)cn1	inactive
C[C@@H]1CN([C@H](C)CO)C(=O)c2cc(NS(C)(=O)=O)ccc2O[C@H]1CN(C)S(=O)(=O)c1cn(C)cn1	inactive
CCCC#Cc1ccc2c(c1)O[C@H](CN(C)S(=O)(=O)c1cccc(F)c1)[C@H](C)CN([C@H](C)CO)S2(=O)=O	inactive
C[C@H]1CN([C@@H](C)CO)C(=O)CCCn2cc(nn2)CO[C@H]1CN(C)S(=O)(=O)c1ccc(-c2ccccc2)cc1	inactive
